Hit rate of the full screen: of about 310,000 compounds, about 14,000 (4.5%) showed an effect of 50% or more. Effects have a minus sign here. Some of the results follow.
Each compound was assayed against human ether-à-go-go-related gene (hERG) potassium channel (human, UniProt Q12809) (assay: primary screen, population patch clamp on CHO cells stably expressing hERG).
Sequence of human ether-à-go-go-related gene (hERG) potassium channel (Q12809 whole entry, looked up): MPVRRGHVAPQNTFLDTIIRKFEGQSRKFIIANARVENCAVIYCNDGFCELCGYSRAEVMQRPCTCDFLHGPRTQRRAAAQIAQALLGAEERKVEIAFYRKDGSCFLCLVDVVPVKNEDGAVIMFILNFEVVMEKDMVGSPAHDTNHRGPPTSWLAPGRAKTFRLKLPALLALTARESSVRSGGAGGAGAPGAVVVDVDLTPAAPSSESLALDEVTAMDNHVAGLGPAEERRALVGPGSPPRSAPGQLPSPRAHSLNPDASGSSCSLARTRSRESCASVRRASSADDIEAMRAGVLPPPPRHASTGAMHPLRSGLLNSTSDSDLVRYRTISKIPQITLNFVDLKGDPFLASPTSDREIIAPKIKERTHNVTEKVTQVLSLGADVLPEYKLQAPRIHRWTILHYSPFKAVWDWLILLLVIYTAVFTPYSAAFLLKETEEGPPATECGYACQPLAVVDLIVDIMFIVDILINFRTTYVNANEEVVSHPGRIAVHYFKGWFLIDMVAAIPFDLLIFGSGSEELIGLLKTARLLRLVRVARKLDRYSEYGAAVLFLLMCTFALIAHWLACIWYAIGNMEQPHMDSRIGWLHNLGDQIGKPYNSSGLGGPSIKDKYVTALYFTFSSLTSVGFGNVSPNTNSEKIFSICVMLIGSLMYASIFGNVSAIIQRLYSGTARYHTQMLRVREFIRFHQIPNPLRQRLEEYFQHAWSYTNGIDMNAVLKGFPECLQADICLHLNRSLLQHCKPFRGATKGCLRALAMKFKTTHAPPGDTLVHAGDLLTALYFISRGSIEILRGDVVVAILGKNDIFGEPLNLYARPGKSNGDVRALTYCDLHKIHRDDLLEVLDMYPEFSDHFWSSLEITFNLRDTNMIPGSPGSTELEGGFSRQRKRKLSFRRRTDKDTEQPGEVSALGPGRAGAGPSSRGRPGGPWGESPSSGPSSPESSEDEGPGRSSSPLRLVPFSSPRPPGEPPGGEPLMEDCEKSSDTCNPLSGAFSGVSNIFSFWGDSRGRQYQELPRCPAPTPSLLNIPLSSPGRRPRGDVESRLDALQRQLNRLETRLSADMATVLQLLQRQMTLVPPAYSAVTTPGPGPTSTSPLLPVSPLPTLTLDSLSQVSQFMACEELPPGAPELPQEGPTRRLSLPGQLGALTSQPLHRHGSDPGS
With `CC(C)c1ccc(NC(=O)CN2CCN(c3ccccn3)CC2)cc1` the “hERG current change (%, negative = inhibition) at 10uM” value was -2.34%.
With `COc1ccccc1Cn1c(C)nc2ccccc21` the “hERG current change (%, negative = inhibition) at 10uM” value was 2.25%.
`O=C(COc1ccc(Br)cc1CO)Nc1ccccc1` was tested, and the “hERG current change (%, negative = inhibition) at 10uM” value was -10.4%.
For `NC(CSCc1ccccc1Cl)C(=O)O` (stereo not shown), the “hERG current change (%, negative = inhibition) at 10uM” value was 0.173%.
In the case of `COc1ccc(C(=O)C2CCCN(CCO)C2)c(C)c1` (stereo not shown), the “hERG current change (%, negative = inhibition) at 10uM” value is reported as 4.23%.
`CC1Cc2ccccc2N1S(=O)(=O)c1cnc(Cl)c(Cl)c1` (stereo not shown) was tested, and the “hERG current change (%, negative = inhibition) at 10uM” value was 22.6%.
For `CSc1nc(Sc2ccccc2Cl)c2ccccc2n1`, the “hERG current change (%, negative = inhibition) at 10uM” value was 16.6%.
For `CC(C)(C)C(=O)CN1C(=O)NC2(CCCc3ccccc32)C1=O` (stereo not shown), the “hERG current change (%, negative = inhibition) at 10uM” value was 14%.
In the case of `O=C1N[C@@H](Cc2ccccc2)C(=O)N2[C@H]1C[C@]1([C@]34C[C@H]5C(=O)N[C@@H](Cc6ccccc6)C(=O)N5[C@H]3N(S(=O)(=O)c3ccccc3)c3ccccc34)c3ccccc3N(S(=O)(=O)c3ccccc3)[C@H]21`, the “hERG current change (%, negative = inhibition) at 10uM” value is reported as 9.44%.
`COc1ccccc1NC(=O)CCCN1C(=O)C(c2ccccc2)Oc2cccnc21` (stereo not shown) was tested, and the “hERG current change (%, negative = inhibition) at 10uM” value was -18.7%.
For `CC(=O)Nc1ccc(NC(=O)C2C3CCC(C3)C2C(=O)O)cc1` (stereo not shown), the “hERG current change (%, negative = inhibition) at 10uM” value was 15.1%.
`COc1ccccc1CNCc1cccc(Oc2ccccc2)c1` was tested, and the “hERG current change (%, negative = inhibition) at 10uM” value was -15.4%.
For `CC(C)(C)c1cc(Cc2ccccc2)[nH]n1`, the “hERG current change (%, negative = inhibition) at 10uM” value was -5.18%.
`COc1ccc(/C=C(\NC(=O)c2ccc(C)cc2)C(=O)NCCN2CCOCC2)cc1` was tested, and the “hERG current change (%, negative = inhibition) at 10uM” value was -64.6%.
`CCOc1cccc(-c2c(C(=O)N/N=C(\C)c3cccs3)nnn2-c2nonc2N)c1` was tested, and the “hERG current change (%, negative = inhibition) at 10uM” value was 11.7%.
With `CCOc1ccc(S(=O)(=O)N2CCCC(C(=O)NCc3cccnc3)C2)cc1C` (stereo not shown) the “hERG current change (%, negative = inhibition) at 10uM” value was -7.47%.
`CCOc1ccc(NS(=O)(=O)c2ccc(C(=O)NCCCN3CCCC3=O)cc2)cc1` was tested, and the “hERG current change (%, negative = inhibition) at 10uM” value was 7.23%.
With `CC[N+](CC)(CC)CCCOC(=O)C(O)(c1ccccc1)C1CCCCC1.[Cl-]` (stereo not shown) the “hERG current change (%, negative = inhibition) at 10uM” value was 1.36%.
For `CCCC(=O)Nc1c(C)nn(C(=O)CCC)c1C`, the “hERG current change (%, negative = inhibition) at 10uM” value was 7.41%.
For `CCOC(=O)c1c(C)[nH]c(C)c1S(=O)(=O)NC(C)Cc1ccco1` (stereo not shown), the “hERG current change (%, negative = inhibition) at 10uM” value was 5.27%.
With `Cn1ncc(C#N)c1NC(=O)c1cc(-c2ccccc2Cl)on1` the “hERG current change (%, negative = inhibition) at 10uM” value was 6.76%.
For `Cc1ccc(S(=O)(=O)Nc2cc3c4c(c2)CCN4C(=O)CC3)cc1`, the “hERG current change (%, negative = inhibition) at 10uM” value was -10%.
With `CC(C)(C)OC(=O)NCCCC[C@H](NC(=O)c1[nH]cnc1C(=O)N[C@@H](Cc1ccccc1)C(=O)OC(C)(C)C)C(=O)OC(C)(C)C` the “hERG current change (%, negative = inhibition) at 10uM” value was 1.54%.
With `CCSc1nnc(NC(=O)C2Cc3ccccc3CN2C(=O)c2ccco2)s1` (stereo not shown) the “hERG current change (%, negative = inhibition) at 10uM” value was -10.3%.
In the case of `CCCCNS(=O)(=O)c1ccc(S(=O)(=O)n2cnc3ccccc32)cc1`, the “hERG current change (%, negative = inhibition) at 10uM” value is reported as 16%.
With `O=C(Nc1ccc(CN2CCS(=O)(=O)CC2)cc1)c1ccc(C(F)(F)F)cc1` the “hERG current change (%, negative = inhibition) at 10uM” value was -4.46%.
For `CCN(CC(=O)NCCC1=CCCCC1)S(=O)(=O)c1ccccc1`, the “hERG current change (%, negative = inhibition) at 10uM” value was -20.8%.
With `CCOC(=O)c1cn(Cc2cccc(Cl)c2)nn1` the “hERG current change (%, negative = inhibition) at 10uM” value was -5.12%.
In the case of `CC1CCc2c(sc(NC(=O)c3ccc(Cn4cc(Br)cn4)o3)c2C(N)=O)C1` (stereo not shown), the “hERG current change (%, negative = inhibition) at 10uM” value is reported as 9.2%.
`Cc1nc(Nc2cccc(O)c2)c2c3c(sc2n1)CCC3` was tested, and the “hERG current change (%, negative = inhibition) at 10uM” value was -1.85%.
In the case of `OCCC1CN(Cc2cnn(-c3ccccc3Cl)c2)CCN1Cc1ccsc1` (stereo not shown), the “hERG current change (%, negative = inhibition) at 10uM” value is reported as -11.7%.
With `Cn1[nH]c(C(F)(F)F)c(C=Nc2ccc(Cl)cc2)c1=O` the “hERG current change (%, negative = inhibition) at 10uM” value was 2.79%.
With `COCCCN1C(=O)/C(=C\c2cccs2)C(C(=O)OC)=C1C` the “hERG current change (%, negative = inhibition) at 10uM” value was -31.9%.
For `COC(=O)CNC(c1ccccc1)c1cc(Br)ccc1NC(=O)CNC(=O)OCc1ccccc1` (stereo not shown), the “hERG current change (%, negative = inhibition) at 10uM” value was 1.71%.
`CC(Sc1ccccc1)C(=O)N/N=C/c1ccccc1` (stereo not shown) was tested, and the “hERG current change (%, negative = inhibition) at 10uM” value was -4.23%.
With `CC1(c2ccc(OC(F)F)cc2)NC(=O)N(CC(=O)Nc2ccc(Cl)cc2F)C1=O` (stereo not shown) the “hERG current change (%, negative = inhibition) at 10uM” value was -28%.
For `O=C(O)c1ccc(CN2C(=O)c3ccccc3S2(=O)=O)cc1`, the “hERG current change (%, negative = inhibition) at 10uM” value was 16.4%.
For `COC(/C=C/Nc1ccc(Br)cc1)=C(C#N)C#N`, the “hERG current change (%, negative = inhibition) at 10uM” value was -39.3%.
`CCOCCn1c(SCCc2ccccc2)nc2c1c(=O)[nH]c(=O)n2C` was tested, and the “hERG current change (%, negative = inhibition) at 10uM” value was -24%.
With `Cc1cc(SCC#N)n2nc(C)c(-c3ccccc3)c2n1` the “hERG current change (%, negative = inhibition) at 10uM” value was -1.69%.
In the case of `COc1ccc(OC)c(CNC(=O)CCCn2ccc3cc(S(=O)(=O)N4CCCC4)ccc32)c1`, the “hERG current change (%, negative = inhibition) at 10uM” value is reported as -11.4%.
For `CCOC(=O)c1c(C)[nH]c(C)c1C(=O)CSc1nc2ccccc2c(=O)n1-c1ccccc1C`, the “hERG current change (%, negative = inhibition) at 10uM” value was 0.835%.
For `C=CCn1c(COc2ccccc2)nnc1SCC(=O)N/N=C/c1ccc(C)cc1`, the “hERG current change (%, negative = inhibition) at 10uM” value was -39.9%.
In the case of `Cc1ccc([N+](=O)[O-])c(OCCN2CCc3ccccc3C2)c1.O=C(O)C(=O)O`, the “hERG current change (%, negative = inhibition) at 10uM” value is reported as -23.3%.
In the case of `CC(C)c1ccc(OCC(=O)Nc2ccncc2)cc1`, the “hERG current change (%, negative = inhibition) at 10uM” value is reported as -8.44%.
With `c1ccc2c(c1)sc1nnnn12` the “hERG current change (%, negative = inhibition) at 10uM” value was -1.4%.
With `C/C(=N\NS(=O)(=O)c1ccc(Cl)c([N+](=O)[O-])c1)c1ccc(C)o1` the “hERG current change (%, negative = inhibition) at 10uM” value was 3.01%.
With `Cn1c(SCC(=O)c2ccccc2)nnc1-c1cccs1` the “hERG current change (%, negative = inhibition) at 10uM” value was -20.2%.
With `Cc1ccc(N=Cc2c(O)n(-c3cc(Cl)ccc3N3CCOCC3)c(=O)c3ccccc23)cc1C` the “hERG current change (%, negative = inhibition) at 10uM” value was 3.86%.
In the case of `O=C(COc1ccc2ccc(=O)oc2c1)N1CCc2ccccc21`, the “hERG current change (%, negative = inhibition) at 10uM” value is reported as 4.35%.
`O=c1c2cc(Br)ccc2nc(-c2ccc([N+](=O)[O-])cc2)n1O` was tested, and the “hERG current change (%, negative = inhibition) at 10uM” value was 41.4%.
For `CCOC(=O)N1CCN(C(=O)c2ccccc2NC(C)=O)CC1`, the “hERG current change (%, negative = inhibition) at 10uM” value was 11.2%.
In the case of `CN(Cc1ccccc1)Cc1nc2c([nH]1)c(=O)n(C)c(=O)n2C`, the “hERG current change (%, negative = inhibition) at 10uM” value is reported as -0.0888%.
For `CC(=O)Nc1ccc(CN2CCC(CO)(CCOc3ccccc3)CC2)cc1`, the “hERG current change (%, negative = inhibition) at 10uM” value was -69.9%.
For `CCOC(=O)N1CCN(C(=O)CSC2=NS(=O)(=O)c3cc(Cl)ccc3N2)CC1`, the “hERG current change (%, negative = inhibition) at 10uM” value was 17.5%.
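Note: peak tail current of the secondary pulse compared with the same well before compound.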
